US11365205B2 (Aurigene Discovery Technologies Limited, priority 2018, dated 2022)

These molecules were tested against PRMT5/MEP50 Complex (Homo sapiens (Human), UniProt O14744) (assay: PRMT5 inhibition based on TR-FRET assay). Conditions: 32 nM PRMT5:MEP50, 50 nM Histone-H4 peptide, 1 μM SAM.
Format: biochemical
Description: PRMT5 Inhibition Based on TR-FRET Assay:
Protein arginine methyltransferase 5 (PRMT5) is a type II arginine methyltransferase that catalyze mono- and symmetric demethylation on arginine residues of histone or non-histone proteins in presence of S-adenosylmethionine (AdoMet or SAM) a cofactor responsible for donating the methyl group. PRMT5 is reported to be overexpressed in several human cancers. To identify compounds that inhibit the PRMT5 and decrease its activity, a TR-FRET based assay has been established. Time-resolved fluorescence resonance energy transfer (TR-FRET) HTS assays are homogeneous proximity assays where the interaction of two dye-labeled binding partners is detected by the energy transfer between a donor and an acceptor dye and the subsequent light emission by the acceptor dye. PRMT5 catalyzes Histone H4 peptide which is biotin tagged to the Lysine amino acid at carboxyl end, in presence of S-adenosyl-1-methionine (SAM) to methylate the peptide. The antibody specific to mono methylated H4 peptide (H4R3) with Ig conjugate binds to the methylated peptide, indirectly binding to the Europium lanthanide. SureLight Allophycocyanin-Streptavidin binds to the biotin tag of the peptide, therefore accepting the energy transferred from the Europium lanthanide. This energy transfer between Europium to SureLight Allophycocyanin is a direct measure of the activity/inhibition of the PRMT5 enzyme.
Assay buffer: 20 mM BICINE (pH 7.6), 25 mM NaCl, 2 mM DTT, 0.01% Tween-20 and 0.01% BSA.
The compound dilutions were prepared as 7.5% DMSO stock solutions in assay buffer. To 2 μL (7.5×) of test compound, 5 μL of PRMT5 enzyme prepared in assay buffer (Final concentration of 32 nM in 15 μL reaction volume) was added and allowed for 30 minutes pre-incubation time in a white polystyrene 384-well plate at room temperature. […] The plates were then read on Victor-3 with Excitation at 340 nm and Emissions collected at 615 and 665 nm in TR-FRET protocol. […]

Sequence of UniProt O14744 (O14744 whole entry): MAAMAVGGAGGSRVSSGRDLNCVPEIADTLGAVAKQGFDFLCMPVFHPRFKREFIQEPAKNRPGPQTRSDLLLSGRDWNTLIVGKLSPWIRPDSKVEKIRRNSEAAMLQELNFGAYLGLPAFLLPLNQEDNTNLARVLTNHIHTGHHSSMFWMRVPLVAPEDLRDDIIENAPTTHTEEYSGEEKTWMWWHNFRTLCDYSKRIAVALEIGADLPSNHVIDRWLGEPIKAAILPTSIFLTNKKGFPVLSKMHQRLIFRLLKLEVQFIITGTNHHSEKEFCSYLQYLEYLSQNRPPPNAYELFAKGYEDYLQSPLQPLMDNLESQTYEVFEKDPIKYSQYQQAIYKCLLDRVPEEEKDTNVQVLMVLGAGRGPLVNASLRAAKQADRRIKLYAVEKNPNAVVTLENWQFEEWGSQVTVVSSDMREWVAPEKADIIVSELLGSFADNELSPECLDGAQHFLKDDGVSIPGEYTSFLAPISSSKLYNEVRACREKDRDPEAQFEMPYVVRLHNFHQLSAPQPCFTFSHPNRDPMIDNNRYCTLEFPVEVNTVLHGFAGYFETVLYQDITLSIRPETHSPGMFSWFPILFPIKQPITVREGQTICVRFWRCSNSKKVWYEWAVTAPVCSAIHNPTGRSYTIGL
Sequence of UniProt O14744 (Q9BQA1 whole entry partner): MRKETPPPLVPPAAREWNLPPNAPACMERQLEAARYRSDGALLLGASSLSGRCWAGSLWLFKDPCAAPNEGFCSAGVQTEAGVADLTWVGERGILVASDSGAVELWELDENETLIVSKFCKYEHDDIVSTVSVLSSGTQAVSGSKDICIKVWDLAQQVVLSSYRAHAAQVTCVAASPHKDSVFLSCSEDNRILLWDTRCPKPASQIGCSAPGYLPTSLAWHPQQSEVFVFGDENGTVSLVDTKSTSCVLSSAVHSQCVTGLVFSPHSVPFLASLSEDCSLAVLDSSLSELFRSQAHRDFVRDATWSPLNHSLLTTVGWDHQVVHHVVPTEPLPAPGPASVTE

Row | IC50 [nM] | Structure (SMILES)
1 | > 5000 | Cc1ccccc1CN1CCN(CC(O)CN2CCc3ccccc3C2)C1=O (single isomer, unassigned) [Example 16b, 1-(3-(3,4-Dihydroisoquinolin-2(1H)-yl)-2-hydroxypropyl)-3-(2-methylbenzyl)imidazolidin-2-one]
2 | 1950 | O=C1N(Cc2ccc(Cl)nc2)CCN1CC(O)CN1CCc2ccccc2C1 (stereo not drawn) [Example 25, 1-((6-Chloropyridin-3-yl)methyl)-3-(3-(3,4-dihydroisoquinolin-2(1H)-yl)-2-hydroxypropyl)imidazolidin-2-one]
3 | 120 | CC(C)c1ccc(CN2C(=O)N(CC(O)CN3CCc4ccccc4C3)C(C)(C)C2=O)cn1 (stereo not drawn) [Example 29, 1-(3-(3,4-Dihydroisoquinolin-2(1H)-yl)-2-hydroxypropyl)-3-((6-isopropylpyridin-3-yl)methyl)-5,5-dimethylimidazolidine-2,4-dione]
